Results on 34 molecules are retold here after patent publication US20170066807A1 (Pieris, published 2017).

Numbering of substitutions follows the chain as printed.

Test [1] concerns the target T1, recombinant human GPC-3 protein (immobilized on plate) (human, UniProt P51654 25-559).
T1 construct: also called R&D 2119-GP/CF
In words: direct ELISA: mutein dilution series on a plate with immobilized recombinant human GPC-3; bound mutein detected with antibody-HRP conjugate [contd]. As for the experimental part: (§1) The affinity (IC50/EC50 values) of the Tlc muteins was determined as summarized in FIG. 5 (SEQ ID NOs: 11-43): [0232] […] Samples were then transferred to a protein high-binding 384er plate with immobilized recombinant human GPC-3 protein. The bound lipocalin muteins were detected by a specific Antibody HRP conjugate complex. […] [0233] […] The bound lipocalin muteins were detected by a specific Antibody HRP conjugate complex.
(An ELISA detects its analyte on a solid surface through an enzyme-linked reagent.)

For test [2], the target named is T1, recombinant human GPC-3 protein …. In words: competition ELISA: mutein dilution series with a fixed concentration of GPC-3 in solution, transferred to a plate with immobilized recombinant human GPC-3; bound mutein detected with antibody-HRP conjugate [contd]. Here is the method: as §1
The target of test [3] is T2, biotinylated human GPC-3 (R&D Systems) (human, UniProt P51654 25-559, randomly biotinylated via Lysine residues using EZ-Link Sulfo-NHS-LC-LC-Biotin).
T2 construct: Bought protein; also called biotinylated recombinant human GPC-3 (R&D 2119-GP/CF)
In words: direct ELISA, biotinylated human GPC-3 captured via Neutravidin, dilution series of the Tlc mutein. Here is the method:
An ELISA was performed to verify the binding affinity and specificity of the selected Tlc muteins. Therefore, a constant concentration of 1 μg/ml biotinylated human GPC-3 (R&D Systems) was captured on the surface of a polystyrol plate (Greiner, GE) via BSA blocked Neutravidin (Thermo Scientific, 5 μg/ml). Two step dilution series of purified Tlc muteins were incubated with the captured GPC-3 for 1 h at room temperature and detected either via the Strep-tag II using a rabbit anti-strep-tag II polyconal antibody (GenScript, USA) or by using a scaffold-specific polyclonal rabbit antibody. In both cases an anti-rabbit-IgG-HRP conjugate (Abcam, UK) was employed as secondary detection antibody.
The absorption ΔA at 320 nm was measured in an ELISA reader (Tecan, GE) and the data were fitted with Graphpad Prism software (Statcom, USA).

Test [4] deals with T3, human GPC-3 on cells (SK Hep1:hGPC-3 transfectants; HepG2) (human, UniProt P51654 25-554).
T3 construct: whole, on cells; The same molecule is used for the transfected SK-Hep1 cells and the GPC-3 positive HepG2 cells; The cell line is named under assay; also called Glypican-3
In words: flow cytometry titration on human GPC-3 transfected SK-Hep1 cells, geometric mean fluorescence, detection with anti-Tlc antiserum and anti-rabbit IgG-PE. As for the experimental part:
Empty vector control cells were also obtained and analyzed in parallel. Expression of GPC-3 was also confirmed using a known mouse anti-GPC-3 clone 1G12 monoclonal antibody (DOS).
In order to assess binding of muteins to the GPC-3 on the cell surface, cells were incubated on ice with increasing concentrations of each lipocalin mutein for 2 hr. Following two washing steps cells were incubated with a secondary rabbit anti-Tlc scaffold antiserum was employed for 30 min. […] Flow cytometry analysis was performed and geometric mean values were compiled in FlowJo (Treestar software) and fitted to a sigmoidal dose response model in the Prism 5 program (GraphPad) to obtain EC50 values.
For orientation: In flow cytometry, cells or beads pass a laser one at a time.

For orientation: EC50 means the concentration that produces a half-maximal response. As a reminder, the IC50 is the concentration that gives 50% inhibition. As usually defined, the EC50 (read off the curve) is the midpoint of the concentration-response curve.

B1: SEQ ID NO 20 (designed binder)
chain: ASDEEIQDVSGTWYLKAMTVDTECFEARFHSVTPMTLTTLEGGNLEAKVTMWLNGWRQEVKAVLEKTDEPGKYTADGGKHVAYIIRSHVKDHYIFYSEGDCEGWPVPGVWLVGRDPKNNLEALEDFEKAAGARGLSTESILIPRQSETSSPG
For B1, the EC50 in test [1] turned out to be 0.9 nM.

B2: SEQ ID NO 16 (designed binder)
chain: ASDEEIQDVSGTWYLKAMTVDYRCLWGKLWSVTPMTLTTLEGGNLEAKVTMRLAGPKQEVKAVLEKTDEPGKYTADGGKHVAYIIRSHVKDHYIFYSEGHCAGFPVPGVWLVGRDPKNNLEALEDFEKAAGARGLSTESILIPRQSETSSPG
Consider B2, for which, in test [2], the IC50 was 1.45 nM.

B3: SEQ ID NO 13 (designed binder)
chain: ASDEEIQDVSGTWYLKAMTVDSNCKKLQGNSVTPMTLTTLEGGNLEAKVTMFIWGWWQEVKAVLEKTDEPGKYTADGGKHVAYIIRSHVKDHYIFYSEGTCYGSPVPGVWLVGRDPKNNLEALEDFEKAAGARGLSTESILIPRQSETSSPG
Consider B3, for which the IC50 in test [2] amounted to 9.74 nM.

B4: SEQ ID NO 14 (designed binder)
chain: B3 chain with S22G, N23T, K25S, Q28H, F52L, W57K, T100S, Y102F
Take B4: the IC50 in test [2] is 15.4 nM.

B5: SEQ ID NO 15 (designed binder)
chain: ASDEEIQDVSGTWYLKAMTVDFDCEFWLVPSVTPMTLTTLEGGNLEAKVTMWIFGIWQEWKAVLEKTDEPGKYTADGGKHVAYIIRSHVKDHYIFYSEGWCPGKPVPGVWLVGRDPKNNLEALEDFEKAAGARGLSTESILIPRQSETSSPG
Consider B5, for which the IC50 in test [2] was determined as 252 nM.

B6: SEQ ID NO 17 (designed binder)
chain: ASDEEIQDVSGTWYLKAMTVDVDCLNSYLRSVTPMTLTTLEGGNLEAKVTMNIHGYYQELKAVLEKTDEPGKYTADGGKHVAYIIRSHVKDHYIFYSEGACTGSPVPGVWLVGRDPKNNLEALEDFEKAAGARGLSTESILIPRQSETSSPG
In the case of B6, the IC50 in test [2] amounted to 258 nM.

B7: SEQ ID NO 18 (designed binder)
chain: ASDEEIQDVSGTWYLKAMTVDTLCPGRFEGSVTPMTLTTLEGGNLEAKVTIAIDGEDQEVKAVLEKTDEPGKYTADGGKHVAYIIRSHVKDHYIFYSEGECAGLPVPGVWLVGRDPKNNLEALEDFEKAAGARGLSTESILIPRQSETSSPG
Turning to B7, the IC50 in test [2] is 43.5 nM.

B8: Tlc mutein of SEQ ID NO: 7 (designed binder)
chain: B7 chain with I51N, A52T, D57Y, A75V
notes: Human tear lipocalin mutein; It was detected via Strep-tag II or a scaffold-specific antibody
As for B8, in test [3], the EC50 came to 5.1 nM. Also, the “EC50 (read off the curve)” value in test [4] is around 200 nM.

B9: SEQ ID NO 31 (designed binder)
chain: B7 chain
B9: in test [1], the 50% effective concentration (EC50) was 20 nM.

B10: SEQ ID NO 26 (designed binder)
chain: B7 chain with I51S, A52D, D54L, E56V, D57N
As for B10, the EC50 in test [1] turned out to be 10 nM.

B11: SEQ ID NO 32 (designed binder)
chain: B7 chain with T22E, L23V, R27H, F28W
In the case of B11, the half-maximal effective concentration (EC50) in test [1] was 4 nM.

B12: SEQ ID NO 38 (designed binder)
chain: B7 chain with I51Q, A52F, D57W
Regarding B12, the EC50 in test [1] was found to be 4.5 nM.

B13: SEQ ID NO 40 (designed binder)
chain: B7 chain with I51Q, A52D, E56I, D57Q
Consider B13, for which the EC50 in test [1] turned out to be 1.4 nM.

B14: SEQ ID NO 19 (designed binder)
chain: B7 chain with I51N, A52V, D57T
Consider B14, for which the concentration for a half-maximal effect (EC50) in test [1] amounted to 3.75 nM.

B15: SEQ ID NO 39 (designed binder)
chain: B7 chain with I51T, A52F, E56S, D57V
Take B15: the EC50 in test [1] came to 12.6 nM.

B16: SEQ ID NO 12 (designed binder)
chain: B7 chain with L23E, P25R, R27H, F28W, E29H, I51Q, A52S, D54W, E56T, D57A
On to B16, for which, in test [2], the IC50 was 276 nM.

B17: SEQ ID NO 34 (designed binder)
chain: B7 chain with T22V, L23V, R27H, F28W, I51L, A52E, E56D, D57T
With B17, the EC50 in test [1] came out at 4.5 nM.

B18: SEQ ID NO 35 (designed binder)
chain: B7 chain with I51M, A52S, D54E, E56V, D57T
For the molecule B18, the EC50 in test [1] came out at 62 nM.

B19: SEQ ID NO 43 (designed binder)
chain: B7 chain with I51M, A52W, D54E, E56G, D57L
As to B19, the EC50 in test [1] stood at 19 nM.

B20: SEQ ID NO 25 (designed binder)
chain: B7 chain with I51M, A52W, E56V, D57I, V60D
Turning to B20, the EC50 in test [1] amounted to 2.6 nM.

B21: SEQ ID NO 37 (designed binder)
chain: B7 chain with I51N, A52T, D57Y, A75V
Consider B21, for which the EC50 in test [1] is 1.1 nM.

B22: SEQ ID NO 30 (designed binder)
chain: B7 chain with I51Q, A52F, E56T, D57L
As to B22, the EC50 in test [1] was 2.9 nM.

B23: SEQ ID NO 36 (designed binder)
chain: B7 chain with I51S, A52L, D54E, D57L
For the molecule B23, in test [1], the 50% effective concentration (EC50) amounted to 2.4 nM.

B24: SEQ ID NO 28 (designed binder)
chain: B7 chain with I51T, A52Q, E56S, D57V
For the molecule B24, in test [1], the EC50 worked out at 4.6 nM.

B25: SEQ ID NO 33 (designed binder)
chain: B7 chain with T22V, L23V, R27H, F28W, I51M, A52D, I53L, D54V, E56T, D57A
As for B25, the EC50 in test [1] worked out at 13.5 nM.

B26: SEQ ID NO 41 (designed binder)
chain: B7 chain with I51M, A52P, D54E, E56G, D57I
As to B26, the EC50 in test [1] came to 7 nM.

B27: SEQ ID NO 24 (designed binder)
chain: B7 chain with I51T, A52W, I53S, D54E, D57F
As to B27, the EC50 in test [1] was determined as 2.8 nM.

B28: SEQ ID NO 21 (designed binder)
chain: B7 chain with I51M, D54P, E56Q, D57V
On to B28, for which the EC50 in test [1] turned out to be 22.2 nM.

B29: SEQ ID NO 11 (designed binder)
chain: ASDEEIQDVSGTWYLKAMTVDDTCPGHYQGSVTPMTLTTLEGGNLEAKVTMPLDGDGQEVKAVLEKTDEPGKYTADGGKHVAYIIRSHVKDHYIFYSEGWCAGLPVPGVWLVGRDPKNNLEALEDFEKAAGARGLSTESILIPRQSETSSPG
For the molecule B29, in test [2], the IC50 amounted to 32.1 nM.

B30: SEQ ID NO 29 (designed binder)
chain: B7 chain with I51N, A52L, E56Q, D57Y
In the case of B30, the EC50 in test [1] was determined as 3.2 nM.

B31: SEQ ID NO 22 (designed binder)
chain: B7 chain with I51M, A52P, D54T, E56V, D57I
In the case of B31, the EC50 in test [1] was 31.2 nM.

B32: SEQ ID NO 27 (designed binder)
chain: B7 chain with I51T, A52S, D54E, D57L
As to B32, the EC50 in test [1] was 28 nM.

B33: SEQ ID NO 42 (designed binder)
chain: B7 chain with I51M, D54V, E56V, D57E, V60A
Consider B33, for which, in test [1], the EC50 turned out to be 6 nM.

B34: SEQ ID NO 23 (designed binder)
chain: B29 chain with D22E, T23F, Q29E, M51N, P52D, L53I, D54Q, D56V, G57D, A102Y
In the case of B34, the EC50 in test [1] came out at 0.47 nM.
